The list shows a part of the results.
Tested on: PfAP2-HC AP2 domain (GST-tagged)
Assay: gcPBM binding intensity (ln(normalized median fluorescence intensity)); higher = stronger DNA binding
How it was run: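 GST-tagged P. falciparum DNA-binding domains, expressed in E. coli (about 25 μg on average), were applied for 1 h to an Agilent 4 × 180k array of primer-extended double-stranded 36-bp intergenic genomic probes plus negative controls. The binding buffer was 1× PBS with 1% milk, 0.2 mg/ml BSA, 0.5% salmon testes DNA and 0.03% Triton X-100. Bound protein was detected with Alexa488 anti-GST antibody and scanned at 488 nm. Binding intensity is the highest Masliner-normalised natural-log median intensity across replicate spots of either probe orientation.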

| Sequence | gcPBM binding intensity (ln) |
| --- | --- |
| AAAGTTGTTACGAACATACACACGAACATACTCACG [CACACA_site604] | 10 |
| TAGAATATCCCCTACACACCCAAATAATTTACAAAT [CACACA_site4825] | 9.86 |
| AAAATATTTATTACTTCACACATTATTGTATTTATA [CACACA_site5082] | 9.77 |
| CATATATTATTATATGCACACATGAAAATATACAAA [CACACA_site2795] | 9.83 |
| TTGAAATATACGTAAGTAAATTTCATTTGGTTGTGT [XGTACX_negctrl_site600] | 9.75 |
| GTATTATATATATAGGTGCATATATATATATAAATA [GTGCAC_site9787] | 9.62 |
| AAATATAAAGGATTAATATTATATATATATATATAT [XGTACX_negctrl_site211] | 9.6 |
| GTTTGGTGGTGTTTTGGTACGTACGGGGGGGTATGT [XGTACX_site1983] | 10.5 |
| TTTTTTTTTTTTTATTGTACTTATTTTTTTATGTTT [XGTACX_site7725] | 9.86 |
| TATGTATTTTTATGCACACATGCGTGGCTTATATAA [CACACA_site387] | 9.79 |
| ATATTTTCTTTAAATTGTACATATTGTGATACAAAA [XGTACX_site5886] | 9.27 |
| ATTTTTTTTTTTTTTTTTTTTTTGTTTATACAAAAT [CACACA_negctrl_site1241] | 9.33 |
| TTTCATTTAGCTTTTACACACTATATATTATTGATT [CACACA_site16] | 9.9 |
| TATATACATACATGTAGTACCTAATTCGGTCCCGTA [XGTACX_site2702] | 9.56 |
| ACACATACATATACATACACATTGTTTTCATGCATC [XGTACX_negctrl_site126] | 10.2 |
| TATATGTGTCTACAGGTGCATATATCATATATTGCT | 9.62 |
| TAAATAAATTTATACACACACACACGGATATAAATA [CACACA_site6532] | 10.6 |
| TATAAATATTTATACACACACATATATTTATATATC [CACACA_site6366] | 10.2 |
| TTGCATTTTCTAGTAACACACAATTAGCGTTGCTGT [CACACA_site3594] | 10 |

| Sequence | gcPBM binding intensity (ln) |
| --- | --- |
| TATAGAAGCATTCACACACACACATACATACACATA [CACACA_site1466] | 10.6 |
| TAACAAAAAGGGAACACATGCGCTCTTTATTTATTT [TGCATGCA_site620] | 9.79 |
| ATAATATTAATATGTACACACCTTAATCCTTAAAAG [CACACA_site7640] | 9.72 |
| GTATTTATATGATTAACACACATATGGGTATTAATA [CACACA_site4853] | 9.7 |
| ATAATTTTTTAAGTGTGTACTAAAATGTGTATTTTA [XGTACX_site6227] | 9.71 |
| TATACCTGAATTAAAAGTACATGTATATATTTTCCC [XGTACX_site3594] | 9.44 |
| ATAAATGACAAATTAACACACATATATTATAGATAT [CACACA_site7770] | 9.86 |
| ATCTATATTTAATTTACACACAAAAAAAATTGTTGG [CACACA_site6582] | 9.75 |
| AAAATGTGATATGTAAATATATATGTATGTATATAT [CACACA_negctrl_site1748] | 9.86 |
| TAATGCATTTTCGCATGTACATATTTCTCTTTATAT [XGTACX_site8915] | 9.69 |
| TATTATAGAAATTTAATGTTGGACAAAAAAATGAAA [CACACA_negctrl_site1351] | 9.51 |
| TCTTAATATCGTTTCTCACACATATACAAACATAAA [CACACA_site5700] | 9.61 |
| AATATATGAATTATATGTACATATAGATAAGTCACA [XGTACX_site7637] | 9.86 |
| AGAGAGAAAGCTATAACATGCAACAATTTTTAGAAC [TGCATGCA_site596] | 9.72 |
| AAATTATTTATTTTATGTACATATTATTAAAGTTAA [XGTACX_site552] | 9.48 |
| TTTCCCTTGTTGTAAACATGCACAATATTTAGGTAT [TGCATGCA_site49] | 9.75 |
| AAAAAAAAGAAAAACACACACATATATATATAGAAT [CACACA_site1006] | 11.3 |
| TTATGTATTTATATAAATATAAATATATATATATAT [CACACA_negctrl_site774] | 9.39 |
| TATATTTATAGGTATACACACATATGTATGTTATGT [CACACA_site7824] | 10.2 |

| Sequence | gcPBM binding intensity (ln) |
| --- | --- |
| ACAAAAATAAACTATAGTACACACTTATTATTATGA [XGTACX_site5680] | 9.82 |
| TCATTTTATTTTTTCACACACACATCTATATTTATA [CACACA_site7547] | 10.2 |
| TAAGTAACTTTTAAAAGTACCCACACATATATATAT [XGTACX_site1231] | 9.77 |
| TTTCTTTTTTTTTTTTTTTTTTTTTTTTTTTTTTTT [TGCATGCA_negctrl_site91] | 9.13 |
| AAAAAAAAAAATACTCGTACATAAACCTATACATTT [XGTACX_site6494] | 9.67 |
| CAATTAGCATTTTATTGTACATTTATAATCTATGAT [XGTACX_site1445] | 9.61 |
| AGTATACAGATATATACACACATATATATATATATA [CACACA_site4323] | 9.96 |
| ATAATATATTTTTGTAGTACACTTCTGGTAATATCG [XGTACX_site2402] | 9.6 |
| CTTAGAATATATGAATGTACTTTTTTTTTTAAATAA [XGTACX_site6048] | 9.35 |
| TATATATATATATGTTGTACAAAAATGTAAAATATA [XGTACX_site7761] | 9.88 |
| ATACATATAAATAATTGTACTATTAAAAAAGAACGT [XGTACX_site3751] | 9.75 |
| AGCTATAATAAATATACACACATATATAAATATGTA [CACACA_site6583] | 9.69 |
| ATATATATATAATAAGTGCAAAAATAATGACCTATA | 9.84 |
| AAATATATATAAGCGTGTACACATTCTGAGTGTTGT [XGTACX_site1088] | 9.97 |
| ATAATAAAAATAAAATGTACATACATAAATATATAT [XGTACX_site6228] | 9.86 |
| TATCGTTTTATTCGGTTGCACCAAAAAAATAAAATA [GTGCAC_site9408] | 9.27 |
| AAAGTATAACGGATACCATTTATGTGATTATTTTGT [XGTACX_negctrl_site188] | 9.63 |
| AAAAAAAATTAAAATAAAATATAAATATAAAATATA [GTGCAC_negctrl_site714] | 9.57 |

Reference: the supplement of paper PMC11417369
